The other results are listed elsewhere or left out.
Assays:
Experiment in all cases: glycan array binding signal (z-score within array); higher = stronger binding
Settings in all cases: glycan notation: IUPAC condensed, linker removed
[1] = target: GalNAc(a1-3)GalNAc(b1-3)Gal(a1-4)Gal(b1-4)GlcNAc
Procedure, shortened: (§1)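 The binding signal is a Z-score computed within each array. Data were drawn from 3228 arrays in the Consortium for Functional Glycomics database, restricted to those with a known protein sequence. Scores were averaged over arrays of the same protein sequence at different concentrations or buffers, and over linkers, and negative values can be taken as non-binding.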

GalNAc(b1-3)Gal = target: GalNAc(b1-3)Gal
Procedure, shortened: as §1

[2] = target: GalNAc(b1-3)Gal(a1-4)Gal(b1-4)GlcNAc
Procedure, shortened: as §1

[3] = target: GalNAc(b1-3)Gal(a1-4)Gal(b1-4)GlcNAc(b1-3)Gal(b1-4)Glc
Procedure, shortened: as §1

[4] = target: GalNAc(b1-3)Gal(a1-6)Gal(b1-4)Glc
Procedure, shortened: as §1

GalNAc(b1-3)GalNAc = target: GalNAc(b1-3)GalNAc
Procedure, shortened: as §1

GalNAc(b1-3)GlcNAc = target: GalNAc(b1-3)GlcNAc
Procedure, shortened: as §1

GalNAc(b1-4)Gal(b1-4)Glc = target: GalNAc(b1-4)Gal(b1-4)Glc
Procedure, shortened: as §1

GalNAc(b1-4)GlcNAc = target: GalNAc(b1-4)GlcNAc
Procedure, shortened: as §1

[5] = target: GalNAc(b1-4)GlcNAc(b1-2)Man
Procedure, shortened: as §1

[6] = target: GalNAc(b1-4)GlcNAc(b1-2)Man(a1-3)[GalNAc(b1-4)GlcNAc(b1-2)Man(a1-6)]Man(b1-4)GlcNAc(b1-4)GlcNAc
Procedure, shortened: as §1

[7] = target: GalNAc(b1-4)GlcNAc(b1-3)GalNAc(b1-4)GlcNAc
Procedure, shortened: as §1

GalNAc(b1-4)GlcNAc6S = target: GalNAc(b1-4)GlcNAc6S
Procedure, shortened: as §1

GalNAc(b1-6)GalNAc = target: GalNAc(b1-6)GalNAc
Procedure, shortened: as §1

GalNAc3S(b1-4)GlcNAc = target: GalNAc3S(b1-4)GlcNAc
Procedure, shortened: as §1

GalNAc3S(b1-4)GlcNAc3S = target: GalNAc3S(b1-4)GlcNAc3S
Procedure, shortened: as §1

[8] = target: GalNAc3S(b1-4)[Fuc(a1-3)]GlcNAc
Procedure, shortened: as §1

GalNAc4S6S(b1-4)GlcNAc = target: GalNAc4S6S(b1-4)GlcNAc
Procedure, shortened: as §1

GalNAc6S(b1-4)GlcNAc = target: GalNAc6S(b1-4)GlcNAc
Procedure, shortened: as §1

Glc(a1-4)Glc = target: Glc(a1-4)Glc
Procedure, shortened: as §1

[9] = target: Glc(a1-4)Glc(a1-4)Glc(a1-4)Glc
Procedure, shortened: as §1

Glc(a1-6)Glc(a1-6)Glc = target: Glc(a1-6)Glc(a1-6)Glc
Procedure, shortened: as §1

[10] = target: Glc(a1-6)Glc(a1-6)Glc(a1-6)Glc
Procedure, shortened: as §1

Glc(b1-4)Glc = target: Glc(b1-4)Glc
Procedure, shortened: as §1

Glc(b1-6)Glc = target: Glc(b1-6)Glc
Procedure, shortened: as §1

GlcA(b1-3)Gal = target: GlcA(b1-3)Gal
Procedure, shortened: as §1

GlcA(b1-3)GlcNAc = target: GlcA(b1-3)GlcNAc
Procedure, shortened: as §1

GlcA(b1-6)Gal = target: GlcA(b1-6)Gal
Procedure, shortened: as §1

[11] = target: GlcA3S(b1-3)Gal(b1-4)GlcNAc(b1-2)Man
Procedure, shortened: as §1

[12] = target: GlcA3S(b1-3)Gal(b1-4)GlcNAc(b1-3)Gal(b1-4)Glc
Procedure, shortened: as §1

[13] = target: GlcNAc(a1-3)Gal(b1-4)GlcNAc
Procedure, shortened: as §1

[14] = target: GlcNAc(a1-4)Gal(b1-3)GlcNAc
Procedure, shortened: as §1

[15] = target: GlcNAc(a1-4)Gal(b1-4)GalNAc
Procedure, shortened: as §1

[16] = target: GlcNAc(a1-4)Gal(b1-4)GlcNAc
Procedure, shortened: as §1

[17] = target: GlcNAc(a1-4)Gal(b1-4)GlcNAc(b1-3)Gal(b1-4)Glc
Procedure, shortened: as §1

[18] = target: GlcNAc(a1-4)Gal(b1-4)GlcNAc(b1-3)Gal(b1-4)GlcNAc
Procedure, shortened: as §1

[19] = target: GlcNAc(a1-4)Gal(b1-4)GlcNAc(b1-3)Gal(b1-4)GlcNAc(b1-3)Gal(b1-4)GlcNAc
Procedure, shortened: as §1

[20] = target: GlcNAc(a1-4)Gal(b1-4)GlcNAc(b1-3)Gal(b1-4)[Fuc(a1-3)]GlcNAc(b1-3)Gal(b1-4)[Fuc(a1-3)]GlcNAc
Procedure, shortened: as §1

B1: Als3-41 (Candida albicans) (protein)
chain: KTITGVFNSFNSLTWSNAATYNYKGPGTPTWNAVLGWSLDGTSASPGDTFTLNMPCVFKFTTSQTSVDLTAHGVKYATCQFQAGEEFMTFSTLTCTVSNTLTPSIKALGTVTLPLAFNVGGTGSSVDLEDSKCFTAGTNTVTFNDGGKKISINVDFERSNVDPKGYLTDSRVIPSLNKVSTLFVAPQCANGYTSGTMGFANTYGDVQIDCSNIHVGITKGLNDWNYPVSSESFSYTKTCSSNGIFITYKNVPAGYRPFVDAYISATDVNSYTLSYANEYTCAGGYWQRAPFTLRWTGYRNSDAGSNGIVIVATTRTVTDSTTAVTTLPFDPNRDKTKTIEILKPIPTTTITTSYVGVTTSYLTKTAPIGETATVIVD
For B1, the “glycan array binding signal (z-score)” value [1] was -0.316, the “glycan array binding signal (z-score)” value (GalNAc(b1-3)Gal) was 0.11 and the “glycan array binding signal (z-score)” value [2] was 0.222. The “glycan array binding signal (z-score)” value [3] was -0.243, the “glycan array binding signal (z-score)” value [4] was -0.157 and the “glycan array binding signal (z-score)” value (GalNAc(b1-3)GalNAc) was -0.345. For the same binder, the “glycan array binding signal (z-score)” value (GalNAc(b1-3)GlcNAc) was 0.038, the “glycan array binding signal (z-score)” value (GalNAc(b1-4)Gal(b1-4)Glc) was -0.103 and the “glycan array binding signal (z-score)” value (GalNAc(b1-4)GlcNAc) was 0.551. For the same binder, the “glycan array binding signal (z-score)” value [5] was 0.183, the “glycan array binding signal (z-score)” value [6] was -0.16 and the “glycan array binding signal (z-score)” value [7] was 1.43. The “glycan array binding signal (z-score)” value (GalNAc(b1-4)GlcNAc6S) was 1.79, the “glycan array binding signal (z-score)” value (GalNAc(b1-6)GalNAc) was -0.119 and the “glycan array binding signal (z-score)” value (GalNAc3S(b1-4)GlcNAc) was 0.076. The “glycan array binding signal (z-score)” value (GalNAc3S(b1-4)GlcNAc3S) was -0.178, the “glycan array binding signal (z-score)” value [8] was -0.27 and the “glycan array binding signal (z-score)” value (GalNAc4S6S(b1-4)GlcNAc) was -0.299. For the same binder, the “glycan array binding signal (z-score)” value (GalNAc6S(b1-4)GlcNAc) was 0.078, the “glycan array binding signal (z-score)” value (Glc(a1-4)Glc) was -0.195 and the “glycan array binding signal (z-score)” value [9] was 0.066. For the same binder, the “glycan array binding signal (z-score)” value (Glc(a1-6)Glc(a1-6)Glc) was -0.177, the “glycan array binding signal (z-score)” value [10] was -0.092 and the “glycan array binding signal (z-score)” value (Glc(b1-4)Glc) was -0.031. For the same binder, the “glycan array binding signal (z-score)” value (Glc(b1-6)Glc) was -0.201, the “glycan array binding signal (z-score)” value (GlcA(b1-3)Gal) was -0.31 and the “glycan array binding signal (z-score)” value (GlcA(b1-3)GlcNAc) was -0.131. For the same binder, the “glycan array binding signal (z-score)” value (GlcA(b1-6)Gal) was -0.221, the “glycan array binding signal (z-score)” value [11] was -0.342 and the “glycan array binding signal (z-score)” value [12] was 0.099. The “glycan array binding signal (z-score)” value [13] was -0.146, the “glycan array binding signal (z-score)” value [14] was -0.24 and the “glycan array binding signal (z-score)” value [15] was -0.114. For the same binder, the “glycan array binding signal (z-score)” value [16] was -0.237, the “glycan array binding signal (z-score)” value [17] was -0.297 and the “glycan array binding signal (z-score)” value [18] was -0.011. The “glycan array binding signal (z-score)” value [19] was -0.329 and the “glycan array binding signal (z-score)” value [20] was 0.656.
